Laboratory results: patent publication US9975943B2, “Polypeptides” (AFFIBODY AB, priority 2013, dated 2018)

Legend:
human FcRn [1] = molecular target: T1, human FcRn (Homo sapiens, UniProt P55899); assay: AlphaLISA blocking assay (IgG binding to FcRn); set-up: purchased Biorbyt orb84388; conditions: 10 nM biotinylated human FcRn, pH 6.0
Description: The potential of Z variants to inhibit binding of IgG to FcRn was analyzed in an AlphaLISA assay with an EnSpire multiplate reader 2300 (Perkin Elmer). Human IgG (Roactemra) was immobilized on AlphaLISA acceptor beads (Perkin Elmer, cat. no. 6772002) according to the manufacturer's recommendations. Stepwise serial dilutions 1:3 of His-tagged Z variants to final concentrations of 250 nM to 38 pM were made in a 384-well plate (Perkin Elmer, cat. no. G6005350) and incubated for 45 min with 10 nM biotinylated human FcRn (Biorbyt, cat. no. orb84388; biotinylated essentially as described in Example 2) in AlphaLISA buffer (Perkin Elmer, cat. no. AL000F) adjusted to pH 6.0 using HCl. IgG-coated Acceptor beads were added to a final concentration of 10 μM and incubated for 45 min. Finally, streptavidin coated Donor beads (Perkin Elmer, cat. no. 6772002) were added to a final concentration of 40 μg/ml and incubated for 30 min. All incubations were performed at RT in the dark. The plate was analyzed in the EnSpire instrument and the IC50 values were calculated using GraphPad Prism 5.
The potential of Z variants to inhibit binding of IgG to FcRn was analyzed in the AlphaLISA assay described in Example 3.

[2] = CD analysis with variable temperature measurement; format: physicochemical; conditions: His6-tagged Z variants 0.5 mg/ml in PBS; CD at 221 nm, 20 to 90° C.
Description: Purified His6-tagged Z variants were diluted to 0.5 mg/ml in PBS. For each diluted Z variant, a CD spectrum at 250-195 nm or 250-190 nm was obtained at 20° C. In addition, a variable temperature measurement (VTM) was performed to determine the melting temperature (Tm). In the VTM, the absorbance was measured at 221 nm while the temperature was raised from 20 to 90° C., with a temperature slope of 5° C./min. A new CD spectrum was obtained at 20° C. after the heating procedure in order to study the refolding ability of the Z variants. The CD measurements were performed on a Jasco J-810 spectropolarimeter (Jasco Scandinavia AB) using a cell with an optical path-length of 1 mm.

human FcRn [3] = molecular target: T1, human FcRn; assay: Biacore kinetic analysis of His6-tagged Z variants; format: binding; set-up: made in house; host or cells: human SKOV-3 cells, lentivirally transduced, secreted; purified on immobilized human IgG; conditions: hFcRn, pH 6.0, Langmuir 1:1 model, approximate
Description: The interaction of FcRn binding His6-tagged Z variants with human FcRn was analyzed in a Biacore 2000 instrument (GE Healthcare). Human FcRn was immobilized in a flow cell on the carboxylated dextran layer of a CM5 chip surface (GE Healthcare). The immobilization was performed using amine coupling chemistry according to the manufacturer's protocol and using HBS-EP (GE Healthcare) as running buffer. One flow cell surface on the chip was activated and deactivated for use as blank during analyte injections. In the two binding experiments presented below, McIlvaines phosphate-citrate buffer pH 6.0 supplemented with 0.005% Tween-20 (0.005% PCT) was used as running buffer. In all experiments, a flow rate of 50 μl/min was used.
In another experiment, approximate kinetic constants (kon and koff) and affinities (KD) were determined for a subset of His6-tagged Z variants. Three concentrations of the Z variants were injected for 1 minute followed by dissociation in running buffer for 1 minute. The surfaces were equilibrated with running buffer during 7.5 minutes before the start of next cycle. […] Kinetic constants were calculated from the sensorgrams using the Langmuir 1:1 model of BiaEvaluation software 4.1 (GE Healthcare).

human FcRn [4] = molecular target: T1, human FcRn; assay: Biacore kinetic analysis, maturated Z variants; format: binding; set-up: purchased Biorbyt orb84388; conditions: pH 6.0, His6-tagged, approximate
Description: The interaction of FcRn binding His6-tagged Z variants with human FcRn was analyzed in a Biacore 2000 instrument essentially as described in Example 3. Human FcRn purchased from Biorbyt (cat. no. orb84388) was used as target protein. The analytes were injected during 2 minutes at 30 μl/min. The dissociation phase was 4 minutes and the equilibration time between the analyte injections was 30 minutes.
In another experiment, approximate kinetic constants (kon and koff) and affinities (KD) were determined for a subset of Z variants. Injected concentrations were 540 nM, 180 nM, 60 nM, 20 nM and 6.7 nM.

human FcRn [5] = molecular target: T1, human FcRn; assay: ELISA KD titration analysis of Z-ABD variants from the maturation; format: binding; set-up: purchased Biorbyt orb84388; conditions: Z-ABD variants in periplasm
Description: A selection of FcRn binders was subjected to an analysis of the response against a dilution series of biotinylated human FcRn using ELISA at both pH 6.0 and pH 7.4 as described above. […] As a background control, all Z variants were also assayed with no target protein added. […] Periplasm containing the ABD moiety only was used as a negative control. Data were analyzed using GraphPad Prism 5 and non-linear regression and KD values (the half maximal effective concentration) were calculated.

[6] = His6-tagged primary Z variants and dimers
[7] = maturated His6-tagged monomeric Z variants

In the case of “Z07909: FcRn binding Z variant, 58 amino acid residues, from phage display selection (VDAKYAKERQEAAHEIRWLPNLTFDQRVAFIVKLLDDPSQSSELLSEAKKLNDSQAPK; Engineered FcRn binding polypeptide)”, the IC50 (human FcRn [1]; [6]) is reported as 46 nM and the “Tm (° C.)” value [2] is reported as 56 °C.

With “Z10109: FcRn binding Z variant, 58 amino acid residues, from phage display selection (VDAKYAKEANTAAHEIRWLPNLTFDQRVAFIRKLWDDPSQSSELLSEAKKLNDSQAPK; Engineered FcRn binding polypeptide)” the IC50 (human FcRn [1]; [6]) was 57 nM and the “Tm (° C.)” value [2] was 61 °C.

Substance “Z10111: FcRn binding Z variant, 58 amino acid residues, from phage display selection (VDAKYAKEDDTAAHEIRWLPNLTYEQRWAFIHKLYDDPSQSSELLSEAKKLNDSQAPK; Engineered FcRn binding polypeptide)” has an IC50 (human FcRn [1]; [6]) of 46 nM.

For “Z10140: FcRn binding Z variant, 58 amino acid residues, from phage display selection (VDAKYAKERSAAAHEIRWLPNLTFDQRVAFILKLTDDPSQSSELLSEAKKLNDSQAPK; Engineered FcRn binding polypeptide)”, the IC50 (human FcRn [1]; [6]) was 56 nM, the Kd (human FcRn [3]) was 86 nM and the “koff” value (human FcRn [3]) was 0.12 s⁻¹. The “kon” value (human FcRn [3]) was 1.4e+06 M⁻¹ s⁻¹.

With “Z10156: FcRn binding Z variant, 58 amino acid residues, from phage display selection (VDAKYAKERTQASHEIRWLPNLTYDQRVAFINKLRDDPSQSSELLSEAKKLNDSQAPK; Engineered FcRn binding polypeptide)” the Kd (human FcRn [3]) was 370 nM, the “koff” value (human FcRn [3]) was 0.28 s⁻¹ and the “kon” value (human FcRn [3]) was 760000 M⁻¹ s⁻¹.

In the case of “Z10183: FcRn binding Z variant, 58 amino acid residues, from phage display selection (VDAKYAKEADNAGHEIRWLPNLTWAQRWAFIHKLLDDPSQSSELLSEAKKLNDSQAPK; Engineered FcRn binding polypeptide)”, the IC50 (human FcRn [1]; [6]) is reported as 39 nM, the Kd (human FcRn [3]) is reported as 130 nM and the “koff” value (human FcRn [3]) is reported as 0.13 s⁻¹. The “kon” value (human FcRn [3]) was 1e+06 M⁻¹ s⁻¹.

With “Z13577: FcRn binding Z variant from the maturated library (VDAKYAKEWHQAAHEIRWLPNLTFDQRVAFIHKLRDDPSQSSELLSEAKKLNDSQAPK; Engineered FcRn binding polypeptide)” the IC50 (human FcRn [1]; [7]) was 12 nM, the Kd (human FcRn [4]) was 13 nM and the “koff” value (human FcRn [4]) was 0.004 s⁻¹. For the same substance, the “kon” value (human FcRn [4]) was 300000 M⁻¹ s⁻¹.

With “Z13578: FcRn binding Z variant from the maturated library (VDAKYAKEWTDAAHEIRWLPNLTFDQRVAFIHKLRDDPSQSSELLSEAKKLNDSQAPK; Engineered FcRn binding polypeptide)” the IC50 (human FcRn [1]; [7]) was 12 nM.

In the case of “Z13583: FcRn binding Z variant from the maturated library (VDAKYAKELEKAGHEIRWLPNLTFDQRVAFIHKLRDDPSQSSELLSEAKKLNDSQAPK; Engineered FcRn binding polypeptide)”, the IC50 (human FcRn [1]; [7]) is reported as 2.7 nM.

With “Z13592: FcRn binding Z variant from the maturated library (VDAKYAKEVDIAAHEIRWLPNLTFDQRVAFIHKLRDDPSQSSELLSEAKKLNDSQAPK; Engineered FcRn binding polypeptide)” the IC50 (human FcRn [1]; [7]) was 6.4 nM.

For “Z13616: FcRn binding Z variant from the maturated library (VDAKYAKEWQQAAHEIRWLPNLTFDQRVAFIHKLRDDPSQSSELLSEAKKLNDSQAPK; Engineered FcRn binding polypeptide)”, the IC50 (human FcRn [1]; [7]) was 7.4 nM.

With “Z13654: FcRn binding Z variant from the maturated library (VDAKYAKELEAAKHEIRWLPNLTFDQRVAFIHKLDDDPSQSSELLSEAKKLNDSQAPK; Engineered FcRn binding polypeptide)” the IC50 (human FcRn [1]; [7]) was 3.5 nM.

In the case of “Z13669: FcRn binding Z variant from the maturated library (VDAKYAKELASAGHEIRWLPNLTFDQRVAFIHKLRDDPSQSSELLSEAKKLNDSQAPK; Engineered FcRn binding polypeptide)”, the IC50 (human FcRn [1]; [7]) is reported as 5.2 nM.

Work on “Z13674: FcRn binding Z variant from the maturated library (VDAKYAKEIEDAGHEIRWLPNLTFDQRVAFIHKLRDDPSQSSELLSEAKKLNDSQAPK; Engineered FcRn binding polypeptide)” yielded an IC50 (human FcRn [1]; [7]) of 2.5 nM.

With “Z13675: FcRn binding Z variant from the maturated library (VDAKYAKENQAAAHEIRWLPNLTFDQRVAFIHKLRDDPSQSSELLSEAKKLNDSQAPK; Engineered FcRn binding polypeptide)” the IC50 (human FcRn [1]; [7]) was 8.2 nM.

Substance “Z13845: FcRn binding Z variant from the maturated library (VDAKYAKENDDAAHEIRWLPNLTFDQRVAFIHKLRDDPSQSSELLSEAKKLNDSQAPK; Engineered FcRn binding polypeptide)” has a Kd (human FcRn [5]; pH 6.0, read-out: KD pH 6.0) of 2.6 nM and a Kd (human FcRn [5]; pH 7.4, read-out: KD pH 7.4) of 4.2 nM.

“Z13846: FcRn binding Z variant from the maturated library (VDAKYAKESEIAGHEIRWLPNLTFDQRVAFIRKLRDDPSQSSELLSEAKKLNDSQAPK; Engineered FcRn binding polypeptide)” showed a Kd (human FcRn [5]; pH 6.0, read-out: KD pH 6.0) of 2.3 nM and a Kd (human FcRn [5]; pH 7.4, read-out: KD pH 7.4) of 4.3 nM.

For “Z13860: FcRn binding Z variant from the maturated library (VDAKYAKEISDAKHEIRWLPNLTFDQRVAFIHKLDDDPSQSSELLSEAKKLNDSQAPK; Engineered FcRn binding polypeptide)”, the Kd (human FcRn [5]; pH 6.0, read-out: KD pH 6.0) was 2.3 nM and the Kd (human FcRn [5]; pH 7.4, read-out: KD pH 7.4) was 8.7 nM.

Substance “Z13865: FcRn binding Z variant from the maturated library (VDAKYAKEHLNAAHEIRWLPNLTFDQRVAFIHKLRDDPSQSSELLSEAKKLNDSQAPK; Engineered FcRn binding polypeptide)” has a Kd (human FcRn [5]; pH 6.0, read-out: KD pH 6.0) of 2.5 nM and a Kd (human FcRn [5]; pH 7.4, read-out: KD pH 7.4) of 5.6 nM.

For “Z13866: FcRn binding Z variant from the maturated library (VDAKYAKEWLDAAHEIRWLPNLTFDQRVAFIHKLRDDPSQSSELLSEAKKLNDSQAPK; Engineered FcRn binding polypeptide)”, the Kd (human FcRn [5]; pH 6.0, read-out: KD pH 6.0) was 2 nM and the Kd (human FcRn [5]; pH 7.4, read-out: KD pH 7.4) was 2.8 nM.

Substance “Z13875: FcRn binding Z variant from the maturated library (VDAKYAKENAAAAHEIRWLPNLTFDQRVAFIHKLRDDPSQSSELLSEAKKLNDSQAPK; Engineered FcRn binding polypeptide)” has a Kd (human FcRn [5]; pH 6.0, read-out: KD pH 6.0) of 2 nM and a Kd (human FcRn [5]; pH 7.4, read-out: KD pH 7.4) of 3.4 nM.

For “Z13993: FcRn binding Z variant, 58 amino acid residues, from phage display selection (VDAKYAKEAGRAAHEIRWLPNLTWDQRVAFIWKLRDDPSQSSELLSEAKKLNDSQAPK; Engineered FcRn binding polypeptide)”, the IC50 (human FcRn [1]; [6]) was 130 nM.
